The other results are listed elsewhere or left out. At the low end of the ranking the order means little.
target: GST-SBP-SLBP (stem-loop binding protein) (UniProt Q14493); experiment: targeted RNA Bind-n-Seq; conditions: RBNS binding buffer: 25 mM Tris pH 7.5, 150 mM KCl, 3 mM MgCl2, 0.1% Tween, 0.5 mg/mL BSA, 1 mM DTT; 27 nM protein, 750 pM RNA pool; temperature not stated; high values mean tight binding;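 further: DESeq read counts versus GST-SBP nonspecific binding control pulldown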

Sequence | binding signal (log2 fold change)
GGUCACGUCUCAAUCAACUCUACUCCAGGAGUUUCCUCCUGCUAUCUCAACAGCUCGCAGUCAAG | -0.00403
GGUCACGUCUCAAUCAACUCAAUCCCAGGAGUUUACUCCUGCAUUCUCAACAGCUCGCAGUCAAG | 0.0426
GGUCACGUCUCAAUCAACUCAUUUCCAGGAGUUUGCUCCUGCAAUUUCAACAGCUCGCAGUCAAG | -0.216
GGUCACGUCUCAAUCAACUCCCUAGAGGGGGGGAAAACCCCUUUACCCUCCCAUUCAACAGCUCGCAGUCAAG | 0.0991
GGUCACGUCUCAAUCAACUCAAUUCCAGGAGUUUUCUCCUGCUUUUUCAACAGCUCGCAGUCAAG | -0.0436
GGUCACGUCUCAAUCAACUCUUCGUCAGGAGUUUUCUCCUGCAAUUUCAACAGCUCGCAGUCAAG | -0.0168
GGUCACGUCUCAAUCAACUCACUAGAGGGGGGGAAAACCCCUUUGCCCUCAUAUUCAACAGCUCGCAGUCAAG | -0.235
GGUCACGUCUCAAUCAACUCUACUCCCAGGGAAAUCCCUGGCUUUCUCAACAGCUCGCAGUCAAG | 0.077
GGUCACGUCUCAAUCAACUCAUCCCCAGGAGUUUUCUCCUGCAUUUUCAACAGCUCGCAGUCAAG | 0.0349
GGUCACGUCUCAAUCAACUCAACUCCAGGAGUUUCCUCCUGCAAUUUCAACAGCUCGCAGUCAAG | 0.067
GGUCACGUCUCAAUCAACUCAUUCUCCAGGGAAACCCCUGGUUUACUCAACAGCUCGCAGUCAAG | -0.155
GGUCACGUCUCAAUCAACUCUUUAGAGGGGGGGAAAACCCCUUUGCCCUCAACUUCAACAGCUCGCAGUCAAG | 0.318
GGUCACGUCUCAAUCAACUCUUUCUCCAGGGAAACCCCUGGCAUACUCAACAGCUCGCAGUCAAG | -0.0265
GGUCACGUCUCAAUCAACUCCCAAGAGGGGGGGAAAACCCCUUUGCCCUCAAUCUCAACAGCUCGCAGUCAAG | 0.193
GGUCACGUCUCAAUCAACUCUCCCGAGGGGGGGAAAACCCCUUUGCCCUCAUAAUCAACAGCUCGCAGUCAAG | -0.00248
GGUCACGUCUCAAUCAACUCUAUCCCCAGGGAAACCCCUGGCAUAUUCAACAGCUCGCAGUCAAG | 0.00938
GGUCACGUCUCAAUCAACUCACAAGAGGGGGGGAAAACCCCUUUGCCCUCAGAAUCAACAGCUCGCAGUCAAG | -0.193
GGUCACGUCUCAAUCAACUCUAUAGAGGGGGGGAAAACCCCUUUGCCCUCACUAUCAACAGCUCGCAGUCAAG | -0.0226
GGUCACGUCUCAAUCAACUCAUUCCCAGGAGUUUCCUCCUGUUUACUCAACAGCUCGCAGUCAAG | 0.0126
GGUCACGUCUCAAUCAACUCAACUCCCAGGGAAAGCCCUGGCAAAUUCAACAGCUCGCAGUCAAG | 0.135
GGUCACGUCUCAAUCAACUCAGUCCCAGGAGUUUUCUCCUGUAUUCUCAACAGCUCGCAGUCAAG | 0.0936
GGUCACGUCUCAAUCAACUCUAUUUCAGGAGUUUACUCCUGCUUUCUCAACAGCUCGCAGUCAAG | 0.0608
GGUCACGUCUCAAUCAACUCUUCCUCAGGAGUUUUCUCCUGCAAACUCAACAGCUCGCAGUCAAG | -0.0179
GGUCACGUCUCAAUCAACUCAAUUUCAGGAGUUUUCUCCUGCUAUCUCAACAGCUCGCAGUCAAG | 0.0414
GGUCACGUCUCAAUCAACUCUUCUCCAGGAGUUUACUCCUGUAUUUUCAACAGCUCGCAGUCAAG | 0.087

Sequence | binding signal (log2 fold change)
GGUCACGUCUCAAUCAACUCAAUCUCCAGGGAAAACCCUGGCAAAGUCAACAGCUCGCAGUCAAG | 0.214
GGUCACGUCUCAAUCAACUCAUCCUCCAGGGAAAGCCCUGGUUAUCUCAACAGCUCGCAGUCAAG | -0.228
GGUCACGUCUCAAUCAACUCUACUUCCAGGGAAAUCCCUGGCGUUUUCAACAGCUCGCAGUCAAG | -0.0229
GGUCACGUCUCAAUCAACUCAAUCUCAGGAGUUUUCUCCUGCAUAUUCAACAGCUCGCAGUCAAG | 0.116
GGUCACGUCUCAAUCAACUCUUCGUCAGGAGUUUUCUCCUGUAAUUUCAACAGCUCGCAGUCAAG | -0.0972
GGUCACGUCUCAAUCAACUCUUUUUCAGGAGUUUCCUCCUGUAUAUUCAACAGCUCGCAGUCAAG | -0.0169
GGUCACGUCUCAAUCAACUCCCAAGAGGGGGGGAAAACCCCUUUACCCUCCAUGUCAACAGCUCGCAGUCAAG | -0.222
GGUCACGUCUCAAUCAACUCAACGGAGGGGGGGAAAACCCCUUUACCCUCAAUAUCAACAGCUCGCAGUCAAG | -0.699
GGUCACGUCUCAAUCAACUCCUAAGAGGGGGGGAAAACCCCUUUGCCCUCACCUUCAACAGCUCGCAGUCAAG | -0.188
GGUCACGUCUCAAUCAACUCAGUCCCCAGGGAAAGCCCUGGCUUUUUCAACAGCUCGCAGUCAAG | -0.185
GGUCACGUCUCAAUCAACUCUUAAGAGGGGGGGAAAACCCCUUUACCCUCGAUAUCAACAGCUCGCAGUCAAG | 0.0892
GGUCACGUCUCAAUCAACUCCAAAGAGGGGGGGAAAACCCCUUUGCCCUCGAUAUCAACAGCUCGCAGUCAAG | -0.56
GGUCACGUCUCAAUCAACUCUUCCCCCAGGGAAAUCCCUGGUAUUUUCAACAGCUCGCAGUCAAG | 0.234
GGUCACGUCUCAAUCAACUCAUCUUCAGGAGUUUUCUCCUGUUUAUUCAACAGCUCGCAGUCAAG | 0.138
GGUCACGUCUCAAUCAACUCUUACGAGGGGGGGAAAACCCCUUUACCCUCACCAUCAACAGCUCGCAGUCAAG | -0.0533
GGUCACGUCUCAAUCAACUCUUCUCCAGGAGUUUACUCCUGCAUAUUCAACAGCUCGCAGUCAAG | -0.194
GGUCACGUCUCAAUCAACUCAAACGAGGGGGGGAAAACCCCUUUACCCUCACCAUCAACAGCUCGCAGUCAAG | -0.0165
GGUCACGUCUCAAUCAACUCUUUUCCCAGGGAAAUCCCUGGUUUUGUCAACAGCUCGCAGUCAAG | -0.18
GGUCACGUCUCAAUCAACUCUUAAGAGGGGGGGAAAACCCCUUUGCCCUCACACUCAACAGCUCGCAGUCAAG | 0.323
GGUCACGUCUCAAUCAACUCCCACGAGGGGGGGAAAACCCCUUUACCCUCUAAAUCAACAGCUCGCAGUCAAG | 0.0887
GGUCACGUCUCAAUCAACUCUUCGUCAGGAGUUUUCUCCUGUUAUUUCAACAGCUCGCAGUCAAG | 0.0262
GGUCACGUCUCAAUCAACUCAUCCUCCAGGGAAAACCCUGGCAAAUUCAACAGCUCGCAGUCAAG | 0.22
GGUCACGUCUCAAUCAACUCUACUUCCAGGGAAAACCCUGGUUAAUUCAACAGCUCGCAGUCAAG | 0.14
GGUCACGUCUCAAUCAACUCAUCGUCAGGAGUUUCCUCCUGUUUACUCAACAGCUCGCAGUCAAG | -0.0767
GGUCACGUCUCAAUCAACUCACUAGAGGGGGGGAAAACCCCUUUACCCUCCACAUCAACAGCUCGCAGUCAAG | -0.134

Sequence | binding signal (log2 fold change)
GGUCACGUCUCAAUCAACUCUUCGGCAGGAGUUUACUCCUGGAAAUUCAACAGCUCGCAGUCAAG | 0.212
GGUCACGUCUCAAUCAACUCACUAGAGGGGGGGAAAACCCCUUUGCCCUCGAAAUCAACAGCUCGCAGUCAAG | 0.209
GGUCACGUCUCAAUCAACUCGCAAGAGGGGGGGAAAACCCCUUUACCCUCAAUUUCAACAGCUCGCAGUCAAG | 0.343
GGUCACGUCUCAAUCAACUCAUCCUCAGGAGUUUUCUCCUGUAUAUUCAACAGCUCGCAGUCAAG | -0.0871
GGUCACGUCUCAAUCAACUCUCACGAGGGGGGGAAAACCCCUUUGCCCUCACUUUCAACAGCUCGCAGUCAAG | 0.351
GGUCACGUCUCAAUCAACUCUUCUCCCAGGGAAAUCCCUGGUAAAUUCAACAGCUCGCAGUCAAG | -0.239
GGUCACGUCUCAAUCAACUCAUCGCCAGGAGUUUGCUCCUGUAUAUUCAACAGCUCGCAGUCAAG | -0.00513
GGUCACGUCUCAAUCAACUCCAACGAGGGGGGGAAAACCCCUUUACCCUCAAACUCAACAGCUCGCAGUCAAG | 0.0535
GGUCACGUCUCAAUCAACUCUUUUCCCAGGGAAAUCCCUGGCAUACUCAACAGCUCGCAGUCAAG | 0.334
GGUCACGUCUCAAUCAACUCUUCCUCCAGGGAAAGCCCUGGUUUAUUCAACAGCUCGCAGUCAAG | -0.0553
GGUCACGUCUCAAUCAACUCUACUUCAGGAGUUUCCUCCUGUAUACUCAACAGCUCGCAGUCAAG | -0.084
GGUCACGUCUCAAUCAACUCUUCCUCCAGGGAAAACCCUGGCUUACUCAACAGCUCGCAGUCAAG | 0.173
GGUCACGUCUCAAUCAACUCAUCCCCAGGAGUUUGCUCCUGCAUUCUCAACAGCUCGCAGUCAAG | 0.306
GGUCACGUCUCAAUCAACUCACCCGAGGGGGGGAAAACCCCUUUACCCUCAUAUUCAACAGCUCGCAGUCAAG | -0.25
GGUCACGUCUCAAUCAACUCUAUUUCCAGGGAAAACCCUGGUAUUUUCAACAGCUCGCAGUCAAG | 0.125
GGUCACGUCUCAAUCAACUCAUCUUCAGGAGUUUGCUCCUGUAUACUCAACAGCUCGCAGUCAAG | 0.0134
GGUCACGUCUCAAUCAACUCCUUCGAGGGGGGGAAAACCCCUUUACCCUCAACCUCAACAGCUCGCAGUCAAG | -0.265
GGUCACGUCUCAAUCAACUCAGUCUCCAGGGAAAUCCCUGGUAAAUUCAACAGCUCGCAGUCAAG | -0.138
GGUCACGUCUCAAUCAACUCUAUCCCCAGGGAAAGCCCUGGCUUACUCAACAGCUCGCAGUCAAG | 0.3
GGUCACGUCUCAAUCAACUCUUCGCCAGGAGUUUUCUCCUGUUUAUUCAACAGCUCGCAGUCAAG | 0.18
GGUCACGUCUCAAUCAACUCAUCCUCCAGGGAAACCCCUGGCAAUCUCAACAGCUCGCAGUCAAG | 0.0869
GGUCACGUCUCAAUCAACUCUUUAGAGGGGGGGAAAACCCCUUUGCCCUCAAUUUCAACAGCUCGCAGUCAAG | 0.141
GGUCACGUCUCAAUCAACUCAGUUUCAGGAGUUUUCUCCUGCUUUCUCAACAGCUCGCAGUCAAG | 0.0887
